# Reference: PubChem BioAssay AID2451 (National Center for Advancing Translational Sciences (NCATS), 2010)
# “And” between values parts separate entries of the source, which are not always exact repeats. Equal entries are not always repeated. The campaign covered roughly 290,000 compounds. About 2,100 (0.72%) were called active. This list was built around the results that the source calls inconclusive (neither active nor inactive); the mix of calls is not that of the screen. Calls come from the whole dose curve; as a rule, active = well fitted inhibition curve with a large enough effect; inconclusive = small, poorly fitted or top-dose-only effect, or effect the other way; inactive = flat fitted curve, though single readings scatter. Potencies of inconclusive entries are doubtful fits and often do not repeat.
# Biological target: Fructose-bisphosphate aldolase (Giardia intestinalis (strain ATCC 50803 / WB clone C6)) (UniProt A8B2U2)
# Sequence of UniProt A8B2U2 (A8B2U2 whole entry, looked up): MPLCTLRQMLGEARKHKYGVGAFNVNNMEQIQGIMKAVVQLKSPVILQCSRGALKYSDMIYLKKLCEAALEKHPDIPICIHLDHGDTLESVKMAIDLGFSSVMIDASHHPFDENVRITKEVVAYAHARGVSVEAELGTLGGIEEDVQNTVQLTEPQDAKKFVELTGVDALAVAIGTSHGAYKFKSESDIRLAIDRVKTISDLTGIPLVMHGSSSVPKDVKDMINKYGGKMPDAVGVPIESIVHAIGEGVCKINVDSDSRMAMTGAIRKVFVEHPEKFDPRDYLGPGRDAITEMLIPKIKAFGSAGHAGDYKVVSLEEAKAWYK
# Experiment: qHTS Assay for Inhibitors of Fructose-1,6-bisphosphate Aldolase from Giardia Lamblia; note: nearly all actives have a fitted effect of over 55% in size
# Settings: purified Giardia FBPA; activity, negative = inhibition: at 59.6 µM (top of the series) unless noted
# In short: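 40 nM FBPA preincubated 10 min at RT with compound (up to 57.5 uM final), then substrate plus GAPDH/TPI/NAD/arsenate coupling and diaphorase/resazurin added. Fluorescence read after 20 min at RT, 525/598 nm.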
# % is set by controls: 0 for no effect and ±100 for the full control effect; potency is the fitted concentration of half-maximal effect; tags give direction and shape of the fitted curve.
SMILES,Potency,"activity, negative = inhibition"
O=C(NC(=S)Nc1cnc2ccccc2c1)c1ccccc1,"inconclusive: 17.7 µM [inhibitor, single point]",–
CN(C/C(O)=C(\C#N)c1ccccc1)C1CCCCC1,"inconclusive: 7.06 µM [inhibitor, partial curve]",–
CCCc1ccc2oc(C(=O)NCCN3CCCC(O)C3)c(C)c2c1 (centres undefined),inactive,–
COc1ccc(/C=C2/SC(=S)N(CC(=O)O)C2=O)cc1OCc1ccc(Cl)cc1,inactive,–
CCCCCCOc1ccc(C(=O)O)cc1,"inconclusive: 17.7 µM [activator, single point]",–
COCCN1C=C2C(=O)C(C)(OC(=O)CCC(=O)OC)C(=O)C=C2C=C1C1CC1 (centres undefined),"inconclusive: 316 nM [inhibitor, full curve] and inconclusive: 397 nM [inhibitor, full curve]",–
C/C=C/c1ccc(OCCCNC(C)CC)c(OC)c1 (centres undefined),"inconclusive: 28.1 µM [inhibitor, single point]",–
Cc1cc2ccccc2nc1SCC(=O)NC1CCCC1,"inconclusive: 19.9 µM [activator, single point]",–
COc1cc(OC)c2nc(C)c3c(c2c1)N(c1ccc(O)cc1)CC3,inactive,–
Oc1c(CN2CCN(c3ccccn3)CC2)cc(Cl)c2cccnc12,"inconclusive: 10 µM [inhibitor, partial curve]",–
COc1cccc(C2(c3cccc(OC)c3)CC2C(=O)Nc2ccccc2Cl)c1 (centres undefined),"inconclusive: 17.7 µM [inhibitor, single point]",–
NS(=O)(=O)c1ccc2c(c1)C1C=CCC1C(C1CC=CCC1)N2 (centres undefined),"inconclusive: 19.9 µM [inhibitor, single point]",–
COc1cc(NC(=O)c2ccc(Cl)cc2Cl)ccc1NC(=O)c1cccs1,inactive,–
COCCCNC(=S)NNC(=O)c1ccoc1C,inactive,–
CCOC(=O)c1c(N)sc(=S)c2c1CCC2,"inconclusive: 19.9 µM [inhibitor, partial curve]",–
COc1ccc([C@]23Cc4cc(OC)c(OC)cc4C(O2)C2=C(CCCC2=O)O3)cc1,"inconclusive: 1.78 µM [inhibitor, partial curve]",–
Cn1c(-c2ccccc2)cnc1NCc1ccccc1,"inconclusive: 14.1 µM [inhibitor, partial curve]",–
Cc1ccc(N2C(=O)CC(Sc3ncn[nH]3)C2=O)cc1 (centres undefined),"inconclusive: 17.7 µM [inhibitor, partial curve]",–
O=c1c2ccccc2nc(CSc2ncnc3nc[nH]c23)n1-c1ccccc1,"inconclusive: 15.8 µM [inhibitor, single point]",–
CN1/C(=N\O)c2cccc3cccc1c23,active: 8.91 µM,–
CCCn1c(C(C)NC(=O)c2ccccc2)n[nH]c1=S (centres undefined),inactive,–
Cc1cc(=O)n(CCc2ccccc2)c(O)c1C#N,"inconclusive: 4.46 µM [inhibitor, single point]",–
O=C(NCc1ccco1)C1OCCc2ccccc21 (centres undefined),inactive,–
CCCN(CCC)C(=O)c1ccc2nc(-c3ccc(OC)c(OC)c3)c(-c3ccc(OC)c(OC)c3)nc2c1,inactive,–
COC(=O)[C@@]1(C#N)[C@@H]2C=CC(C(C)=O)=CN2[C@@H](C(N)=O)[C@@H]1c1ccc(F)cc1,"inconclusive: 15.8 µM [inhibitor, partial curve]",–

SMILES,Potency,"activity, negative = inhibition"
CC(C)(C)CN1CCNC(=O)C1CC(=O)N1CCOc2ccccc2C1 (centres undefined),"inconclusive: 22.3 µM [inhibitor, partial curve]",–
CCOC(=O)c1c(N)sc(C(=O)N2CCCCCC2)c1C,inactive,–
CC(=C/c1ccco1)/C=N/NC(=O)Cc1cccn1C,"inconclusive: 9.98 µM [inhibitor, partial curve]",–
CCOC(=O)CCCc1sc(N)nc1-c1[nH]c(=O)[nH]c1C,"inconclusive: 11.2 µM [inhibitor, partial curve]",–
COc1ccc(NC(=O)CSc2n[nH]c(-c3ccccn3)n2)cc1,"inconclusive: 39.8 µM [inhibitor, single point]",–
CC(=O)NC1N=C(C)N(c2ccccc2)C1=O (centres undefined),"inconclusive: 9.98 µM [inhibitor, partial curve]",–
CCOC(=O)c1c(NC(=O)CSc2nnc(C)s2)sc2c1CCN(C)C2,"inconclusive: 15.8 µM [inhibitor, partial curve]",–
OC12CC3C[C@H](C1)C(N1CCOCC1)[C@@H](C3)C2 (some centres undefined),"inconclusive: 28.2 µM [inhibitor, single point]",–
CCOC(=O)[C@@H]1[C@H]2COc3cc(OC)ccc3[C@H]2N2C(=O)N(c3cccc(Cl)c3)C(=O)[C@]12C,–,inconclusive: 39.1% [activator]
CCOC(=O)c1nn(-c2ccccc2)c(=O)c2c(N)scc12,"inconclusive: 0.889 µM [inhibitor, full curve]",–
CC1CC(=O)NN1C(=O)c1ccccc1 (centres undefined),"inconclusive: 17.7 µM [inhibitor, partial curve]",–
COc1ccccc1NC(=O)C1=C(C)NC(=O)NC1c1ccccc1[N+](=O)[O-] (centres undefined),"inconclusive: 14.1 µM [inhibitor, partial curve]",–
Cn1nnc(NC(=S)NC(=O)c2ccc(-c3ccc(Br)cc3)o2)n1,"inconclusive: 14.1 µM [inhibitor, partial curve]",–
O=C(O)CN1C(=O)c2ccc(C(=O)c3ccccc3)cc2C1=O,inactive,–
CSc1nc(=NC(C)=O)ss1,"inconclusive: 9.98 µM [inhibitor, partial curve]",–
Cc1cc(C)c(S(=O)(=O)/N=C2\C=CC(=O)C(Cl)=C2)c(C)c1,"inconclusive: 15.8 µM [inhibitor, single point]",–
O=c1c2c3c(sc2nc2n1CCC2)CCCCC3,inactive,–
COc1ccc(N2CCN(C(=O)CSc3nc4cc(OC)c(OC)cc4cc3C#N)CC2)cc1,"inconclusive: 12.6 µM [inhibitor, partial curve]",–
COc1cccc(NC(=O)C(NCC2CCCCC2)c2ccccc2)c1 (centres undefined),"inconclusive: 19.9 µM [inhibitor, partial curve]",–
CCCC1c2ccc(C)n2CCN1C(=O)Nc1ccccc1Cl (centres undefined),"inconclusive: 19.9 µM [inhibitor, single point]",–
COc1ccc(-n2ncc3c(NC(C)C)ncnc32)cc1,inactive,–
O=C(O)c1c(Cl)c(Cl)c(Cl)c(Cl)c1C(=O)N1CCOCC1,"inconclusive: 35.4 µM [activator, single point]",–
O=C(O)c1ccccc1NS(=O)(=O)c1cccc(C(F)(F)F)c1,"inconclusive: 17.7 µM [activator, single point]",–
C/C(=N\NC(=O)c1ccc(C)cc1C)c1ccc(-n2ccnc2)cc1,inactive,–
O=C(CSc1ncn[nH]1)c1ccccc1,"inconclusive: 31.6 µM [inhibitor, single point]",–

SMILES,Potency,"activity, negative = inhibition"
CC(C)n1c(-c2ccncc2)n[nH]c1=S,"inconclusive: 12.6 µM [inhibitor, partial curve]",–
COc1cccc(-c2cc3c(-n4cccc4)ncnc3o2)c1,inactive,–
C[C@@H](C(=O)NCCF)[C@H]1C[C@]1(C)[C@H](NC(=O)OCc1ccccc1)c1ccccc1,inactive,–
C#CCNc1c2c(nc3ncnn13)CC(C)CC2 (centres undefined),inactive,–
Cc1cc2c([nH]c3ccccc32)c(C)n1,"inconclusive: 31.6 µM [inhibitor, single point]",–
O=S(=O)(/N=C/c1c(O)ccc2ccccc12)c1ccccc1,"inconclusive: 25.1 µM [inhibitor, partial curve]",–
O=C(CN1CCCCCC1)NCC1CCCO1 (centres undefined),"inconclusive: 14.1 µM [inhibitor, partial curve]",–
COC(=O)c1ccccc1S(=O)(=O)NNC(=O)Nc1ccccc1,inactive,–
c1ccc(CNc2ccnc(-c3ccoc3)n2)cc1,inactive,–
C=CCNC1=C(Cl)C(=O)c2ccccc2C1=O,"inconclusive: 1 µM [inhibitor, partial curve]",–
COc1ccc(/C=C2/SC(c3ccc(C)cc3)=NC2=O)cc1OC,"inconclusive: 4.46 µM [inhibitor, full curve, poor fit]",–
O=[N+]([O-])c1ccccc1S(=O)(=O)N1CCN(Cc2ccsc2)CC1,active: 19.9 µM,–
O=C(O)c1cccc(NS(=O)(=O)c2ccc(NC(=O)c3ccco3)cc2)c1,"inconclusive: 17.7 µM [activator, partial curve]",–
c1ccc(NCc2cccc3ccccc23)nc1,"inconclusive: 28.2 µM [inhibitor, single point]",–
Cc1ccc(NC(=O)c2cc(S(=O)(=O)N3CCOCC3)cs2)cc1,inactive,–
CCOC(=O)C1CCCN(CC(=O)Nc2nccs2)C1 (centres undefined),"inconclusive: 15.8 µM [inhibitor, partial curve]",–
O=C(CNCC1CCCCC1)Nc1ccc(N2CCCCC2)cc1,"inconclusive: 15.8 µM [inhibitor, partial curve]",–
O=C1C2C3C=CC(C3)C2C(=O)N1c1ccc2c(c1)OCO2 (centres undefined),inactive,–
CC1=CC(C)(C)Nc2ccc(OC(=O)C(C)N3C(=O)c4ccccc4C3=O)cc21 (centres undefined),inactive,–
COc1ccc(NC(=O)c2sc(SC)nc2N)cc1,inactive,–
Cc1cc(C)nc(SCC(=O)c2ccc(O)c(O)c2)n1,active: 11.2 µM,–
C=CCNC(=S)N1CCC(C(=O)c2ccc(Cl)cc2)CC1,"inconclusive: 31.6 µM [inhibitor, partial curve]",–
Brc1ccc(-c2nn3c(-c4ccccn4)nnc3s2)o1,"inconclusive: 17.7 µM [inhibitor, single point]",–
CC(=O)c1ccc(N(C)C)c2c(N(C)C)cccc12,"inconclusive: 0.889 µM [inhibitor, full curve]",–
